{"source": "the supplement of paper PMC6531468", "note": "The list shows a part of the results. Read counts after selection give these values, which scatter widely. Each score is taken over the longer molecules that contain the sequence shown.", "data": [{"test_system": "IMP3 KH1-4", "sequence (chain, as listed by the source)": "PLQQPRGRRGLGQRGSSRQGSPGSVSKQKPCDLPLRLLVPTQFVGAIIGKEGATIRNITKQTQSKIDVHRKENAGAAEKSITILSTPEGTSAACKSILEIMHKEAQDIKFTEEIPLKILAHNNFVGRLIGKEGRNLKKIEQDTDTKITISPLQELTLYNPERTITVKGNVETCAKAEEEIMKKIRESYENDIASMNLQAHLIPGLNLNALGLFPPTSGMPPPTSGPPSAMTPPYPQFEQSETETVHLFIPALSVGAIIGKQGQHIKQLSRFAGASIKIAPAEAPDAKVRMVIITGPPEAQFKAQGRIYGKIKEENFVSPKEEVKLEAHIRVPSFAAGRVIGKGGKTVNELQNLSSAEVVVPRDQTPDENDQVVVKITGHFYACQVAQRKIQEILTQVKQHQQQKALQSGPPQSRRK", "test": "6-mer SELEX enrichment z-score vs GST control; IMP3 is the RNA-binding protein IGF2BP3; higher = more enriched by binding", "details": "construct: KH1-4 (164-579); SELEX round: R4", "procedure": "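SELEX-seq with GST-tagged IMP3 KH1-4 (Pro164-Lys579) and an N40 RNA pool, round 4. 6-mer z-score of sequence-tag enrichment normalised to the corresponding GST SELEX round; RNA k-mers written as DNA (T for U).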", "values": [{"sequence": "CGGAAT", "6-mer SELEX enrichment z-score": -0.007}, {"sequence": "AAGAAT", "6-mer SELEX enrichment z-score": 1.15}, {"sequence": "AGTCGT", "6-mer SELEX enrichment z-score": 0.047}, {"sequence": "CCTTAC", "6-mer SELEX enrichment z-score": -0.122}, {"sequence": "GGAAAT", "6-mer SELEX enrichment z-score": 0.737}, {"sequence": "GAATGC", "6-mer SELEX enrichment z-score": 0.011}, {"sequence": "GAAAGG", "6-mer SELEX enrichment z-score": 0.165}, {"sequence": "TGGCCT", "6-mer SELEX enrichment z-score": -0.133}, {"sequence": "AAGCCA", "6-mer SELEX enrichment z-score": -0.536}, {"sequence": "CTCAAG", "6-mer SELEX enrichment z-score": -1.21}, {"sequence": "TTAGCC", "6-mer SELEX enrichment z-score": -0.02}, {"sequence": "AACTGC", "6-mer SELEX enrichment z-score": 0.055}, {"sequence": "TCGTGA", "6-mer SELEX enrichment z-score": -0.139}, {"sequence": "CTCGAT", "6-mer SELEX enrichment z-score": -1.08}, {"sequence": "TCTACA", "6-mer SELEX enrichment z-score": 0.753}, {"sequence": "ACGTAC", "6-mer SELEX enrichment z-score": -1.23}, {"sequence": "GACCGA", "6-mer SELEX enrichment z-score": -1.97}, {"sequence": "GGATAC", "6-mer SELEX enrichment z-score": 0.078}, {"sequence": "TGACCT", "6-mer SELEX enrichment z-score": -0.768}, {"sequence": "CTCTCC", "6-mer SELEX enrichment z-score": 0.106}, {"sequence": "ATAGGC", "6-mer SELEX enrichment z-score": 1.04}, {"sequence": "GCATGT", "6-mer SELEX enrichment z-score": 0.43}, {"sequence": "CCGGCA", "6-mer SELEX enrichment z-score": 1.18}, {"sequence": "ATCGGG", "6-mer SELEX enrichment z-score": -0.966}, {"sequence": "AGTACC", "6-mer SELEX enrichment z-score": -1.24}, {"sequence": "GTTACT", "6-mer SELEX enrichment z-score": 0.016}, {"sequence": "TGCATA", "6-mer SELEX enrichment z-score": 0.619}, {"sequence": "GCCTCG", "6-mer SELEX enrichment z-score": -0.984}, {"sequence": "TTGGTT", "6-mer SELEX enrichment z-score": -0.012}, {"sequence": "TGTTCT", "6-mer SELEX enrichment z-score": 0.399}, {"sequence": "AAATAC", "6-mer SELEX enrichment z-score": 0.574}, {"sequence": "GTATCG", "6-mer SELEX enrichment z-score": -0.413}, {"sequence": "TGTGCC", "6-mer SELEX enrichment z-score": -0.58}, {"sequence": "ACCTAC", "6-mer SELEX enrichment z-score": -1.33}, {"sequence": "ACTATT", "6-mer SELEX enrichment z-score": 1.64}, {"sequence": "ACTGCG", "6-mer SELEX enrichment z-score": -0.643}, {"sequence": "AAATTG", "6-mer SELEX enrichment z-score": 0.02}, {"sequence": "TACCTC", "6-mer SELEX enrichment z-score": -0.912}, {"sequence": "ATGCTA", "6-mer SELEX enrichment z-score": 0.406}, {"sequence": "CAGGCT", "6-mer SELEX enrichment z-score": 0.319}]}]}
